In patent US20180161402A1 (CSL BEHRING LENGNAU, published 2018):

Target: T1, rVIII-SingleChain (recombinant single chain Factor VIII) (Homo sapiens (Human), UniProt P00451 20-2351)
T1 construct: also called rVIII-SC; FVIII
T1 sequence: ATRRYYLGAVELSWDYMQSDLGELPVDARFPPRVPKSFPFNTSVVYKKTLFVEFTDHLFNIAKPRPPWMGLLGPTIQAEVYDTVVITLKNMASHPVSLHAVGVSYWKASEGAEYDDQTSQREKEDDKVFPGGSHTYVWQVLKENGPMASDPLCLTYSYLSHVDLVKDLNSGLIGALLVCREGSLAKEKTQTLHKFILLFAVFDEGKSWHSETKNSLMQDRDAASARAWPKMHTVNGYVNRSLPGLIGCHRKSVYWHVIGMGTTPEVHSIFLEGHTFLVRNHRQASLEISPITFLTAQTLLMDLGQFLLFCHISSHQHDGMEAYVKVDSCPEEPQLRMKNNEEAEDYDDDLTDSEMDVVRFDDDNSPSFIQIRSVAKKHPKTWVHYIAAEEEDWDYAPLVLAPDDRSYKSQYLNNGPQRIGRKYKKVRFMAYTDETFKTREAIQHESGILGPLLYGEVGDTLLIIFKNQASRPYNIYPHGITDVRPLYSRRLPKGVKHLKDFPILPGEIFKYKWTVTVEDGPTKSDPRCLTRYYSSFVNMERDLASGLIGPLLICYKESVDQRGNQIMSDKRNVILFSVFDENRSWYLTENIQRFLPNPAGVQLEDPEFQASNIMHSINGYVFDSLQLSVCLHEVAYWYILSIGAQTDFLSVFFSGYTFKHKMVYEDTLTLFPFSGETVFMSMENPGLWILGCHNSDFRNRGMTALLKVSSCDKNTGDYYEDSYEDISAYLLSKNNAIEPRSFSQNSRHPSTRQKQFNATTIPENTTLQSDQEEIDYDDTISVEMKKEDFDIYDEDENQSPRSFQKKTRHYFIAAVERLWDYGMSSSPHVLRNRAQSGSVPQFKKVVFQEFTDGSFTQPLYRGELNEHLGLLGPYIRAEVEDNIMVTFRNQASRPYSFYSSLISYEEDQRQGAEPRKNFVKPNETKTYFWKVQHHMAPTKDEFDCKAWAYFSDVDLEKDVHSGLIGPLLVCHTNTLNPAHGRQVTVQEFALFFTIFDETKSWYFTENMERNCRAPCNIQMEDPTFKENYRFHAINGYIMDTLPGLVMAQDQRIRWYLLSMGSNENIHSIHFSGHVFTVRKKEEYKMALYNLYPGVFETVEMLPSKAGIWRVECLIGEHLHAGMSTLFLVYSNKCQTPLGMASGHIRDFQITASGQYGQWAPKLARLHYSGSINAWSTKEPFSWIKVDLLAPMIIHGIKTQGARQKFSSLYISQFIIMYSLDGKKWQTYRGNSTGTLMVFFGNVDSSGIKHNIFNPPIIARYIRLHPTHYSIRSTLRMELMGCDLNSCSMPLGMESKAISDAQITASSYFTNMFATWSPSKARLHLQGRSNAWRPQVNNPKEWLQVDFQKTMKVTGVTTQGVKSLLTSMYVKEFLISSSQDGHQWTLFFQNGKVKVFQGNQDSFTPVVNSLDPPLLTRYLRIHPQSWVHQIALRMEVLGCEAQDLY
Experiment: SPR (Biacore T200)
Experimental: Dimeric and monomeric D′D3-FP proteins, respectively, were immobilized to the covalently coupled anti-albumin antibody by a flow of the D′D3-FP proteins (5 μg/mL) over the chip for 3 min (flow rate of 10 μL/min).
To create binding curves for FVIII, each D′D3-FP protein preparation was diluted in running buffer (HBS-P+: 0.1 M HEPES, 1.5 M NaCl and 0.5% v/v Surfactant P20, pH 7.4; product code BR100671, GE Healthcare) to concentrations of 0.25 nM, 0.5 nM, 1 nM, 3 nM and 4 nM. By performing a single cycle kinetic, samples with ascending concentrations of each dilution were flown over the chip for 2 min (flow rate 30 μL/min.), followed by a dissociation time of 10 min. with running buffer HBS-P+. All measurements were performed twice. The temperature for the measuring procedure was adjusted to +25° C.
Binding parameters were calculated using BiaEvaluation Software. The curve fitting methods were based on Langmuir equations. The input data for calculations were the molar mass of the analyte FVIII (rVIII-SingleChain), other parameters like max. RU and slopes were automatically extracted out of the fitted association and dissociation curves. The outputs of BiaEvaluation Software are the association rate constants and the dissociation rate constants, from which the affinity constants were calculated.

B1: D′D3-FP dimer (VWF fragment (1-1242) albumin fusion, dimeric preparation) (other)
chain: SLSCRPPMVKLVCPADNLRAEGLECTKTCQNYDLECMSMGCVSGCLCPPGMVRHENRCVALERCPCFHQGKEYAPGETVKIGCNTCVCRDRKWNCTDHVCDATCSTIGMAHYLTFDGLKYLFPGECQYVLVQDYCGSNPGTFRILVGNKGCSHPSVKCKKRVTILVEGGEIELFDGEVNVKRPMKDETHFEVVESGRYIILLLGKALSVVWDRHLSISVVLKQTYQEKVCGLCGNFDGIQNNDLTSSNLQVEEDPVDFGNSWKVSSQCADTRKVPLDSSPATCHNNIMKQTMVDSSCRILTSDVFQDCNKLVDPEPYLDVCIYDTCSCESIGDCACFCDTIAAYAHVCAQHGKVVTWRTATLCPQSCEERNLRENGYECEWRYNSCAPACQVTCQHPEPLACPVQCVEGCHAHCPPGKILDELLQTCVDPEDCPVCEVAGRRFASGKKVTLNPSDPEHCQICHCDVVNLTCEACQEPGGSSGGSGGSGGSGGSGGSGGSGGSGGSGGSGS[gap - about 600 residues]
notes: Dimer fraction isolated by size exclusion chromatography; Expressed in CHO K1 cells with PACE/furin, propeptide cleaved off; Captured on the chip through an anti-albumin antibody; also called dimeric D′D3-FP; D′D3 albumin fusion protein
fold slower dissociation rate constant than to the D′D3-FP monomer: 3 fold
